Experimental data published in paper PMC4482762.
Numbering of substitutions follows the chain as printed. Results are given in words; binding and its absence hold for the method and conditions named. For some of these results: Binding seen in cells or lysates may run through a third protein. Some entries that bind do so weakly or less than the wild type. For some of these results: Where a sequence is shown, tags or fusion partners need not be part of it.

Sequences of proteins named here, by UniProt entry; tags and fusion partners are left off.
UniProt P62258: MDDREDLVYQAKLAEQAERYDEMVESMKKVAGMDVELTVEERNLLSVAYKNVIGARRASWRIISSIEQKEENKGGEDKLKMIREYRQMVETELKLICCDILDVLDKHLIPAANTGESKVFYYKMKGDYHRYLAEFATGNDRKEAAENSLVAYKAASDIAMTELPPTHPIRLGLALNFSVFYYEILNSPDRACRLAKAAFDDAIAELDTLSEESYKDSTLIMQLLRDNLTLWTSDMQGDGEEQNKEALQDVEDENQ
UniProt P62136: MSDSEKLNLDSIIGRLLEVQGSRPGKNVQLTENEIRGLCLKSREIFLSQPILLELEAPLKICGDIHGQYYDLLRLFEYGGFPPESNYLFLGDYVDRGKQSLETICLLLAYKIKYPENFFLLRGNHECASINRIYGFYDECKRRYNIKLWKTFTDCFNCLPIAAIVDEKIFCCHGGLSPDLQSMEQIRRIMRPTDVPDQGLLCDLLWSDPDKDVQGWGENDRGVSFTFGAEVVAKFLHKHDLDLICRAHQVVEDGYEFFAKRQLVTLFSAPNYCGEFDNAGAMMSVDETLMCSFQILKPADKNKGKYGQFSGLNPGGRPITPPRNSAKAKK

What was measured:
[1] = target: T1, LexA-R6 wild type (PPP1R3D) (human) (UniProt O95685); assay: two-hybrid; yeast THY-AP4 co-transformed with pBTM-R6 (LexA-R6 wild type or mutants) and pACT2 fusions (GAD-PP1α, GAD-laforin, GAD-14-3-3ε); β-galactosidase activity in permeabilized cells, Miller units
T1 sequence: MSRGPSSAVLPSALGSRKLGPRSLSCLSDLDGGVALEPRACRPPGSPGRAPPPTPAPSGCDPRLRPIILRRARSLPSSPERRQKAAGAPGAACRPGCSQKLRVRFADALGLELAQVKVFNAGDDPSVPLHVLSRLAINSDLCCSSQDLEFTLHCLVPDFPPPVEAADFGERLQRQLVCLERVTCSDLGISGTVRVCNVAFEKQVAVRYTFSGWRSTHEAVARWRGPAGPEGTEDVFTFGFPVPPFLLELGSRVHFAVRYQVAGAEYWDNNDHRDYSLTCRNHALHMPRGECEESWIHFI

[2] = target: T2, LexA-R6 WDNAD (N270A) (human) (UniProt O95685); assay: as above
T2 sequence: T1 sequence with N270A

[3] = target: T3, LexA-R6 S25A (human) (UniProt O95685); assay: as above
T3 sequence: T1 sequence with S25A

[4] = target: T4, LexA-R6 RARA (V103A-F105A) (human) (UniProt O95685); assay: as above
T4 sequence: T1 sequence with V103A, F105A

[5] = target: T5, LexA-R6 S74A (human) (UniProt O95685); assay: as above
T5 sequence: T1 sequence with S74A

[6] = target: T6, YFP-R6 S25A (human) (UniProt O95685); assay: co-IP; GFP-Trap: lysates of Hek293 cells transfected with YFP-R6 forms, 2 mg of supernatant with GFP-Trap_A beads 10 min at 4°C (25 mM Tris-HCl pH 7.5, 150 mM NaCl, 0.5% NP-40); endogenous partners found by Western blotting
T6 sequence: T1 sequence with S25A

[7] = target: T7, YFP-R6 RAHA (V253A-F255A) (human) (UniProt O95685); assay: as above
T7 sequence: T1 sequence with V253A, F255A

[8] = target: T8, YFP-R6 S74A (human) (UniProt O95685); assay: as above
T8 sequence: T1 sequence with S74A

[9] = target: T9, YFP-R6 wild type (PPP1R3D) (human) (UniProt O95685); assay: as above
T9 sequence: T1 sequence

[10] = target: T10, YFP-R6 RARA (V103A-F105A) (human) (UniProt O95685); assay: as above
T10 sequence: T1 sequence with V103A, F105A

[11] = target: T11, YFP-R6 WDNAD (N270A) (human) (UniProt O95685); assay: as above
T11 sequence: T1 sequence with N270A

[12] = target: T12, LexA-R6 WANNA (D268A-D271A) (human) (UniProt O95685); assay: two-hybrid; yeast THY-AP4 co-transformed with pBTM-R6 (LexA-R6 wild type or mutants) and pACT2 fusions (GAD-PP1α, GAD-laforin, GAD-14-3-3ε); β-galactosidase activity in permeabilized cells, Miller units
T12 sequence: T1 sequence with D268A, D271A

Molecule: GAD-14-3-3ε (from UniProt P62258 1-255)
- binding [1]: binds
- binding [2]: binds
- binding [3]: binds
- binding [4]: binds
- binding [5]: no binding

Molecule: GAD-PP1α (PP1 catalytic subunit) (from UniProt P62136 1-330) (enzyme)
- binding [1]: binds
- binding [2]: binds
- binding [3]: binds
- binding [4]: no binding
- binding [5]: binds

Molecule: endogenous 14-3-3ε protein (from UniProt P62258 1-255)
- binding [6]: binds
- binding [7]: binds
- binding [8]: no binding
- binding [9]: binds
- binding [10]: binds
- binding [11]: binds

Molecule: endogenous PP1c catalytic subunit (from UniProt P62136 1-330) (enzyme)
- binding [6]: binds
- binding [7]: binds
- binding [8]: binds
- binding [9]: binds
- binding [10]: no binding
- binding [11]: binds

B1: GAD-laforin (enzyme, UniProt O95278 1-331)
chain: MRFRFGVVVPPAVAGARPELLVVGSRPELGRWEPRGAVRLRPAGTAAGDGALALQEPGLWLGEVELAAEEAAQDGAEPGRVDTFWYKFLKREPGGELSWEGNGPHHDRCCTYNENNLVDGVYCLPIGHWIEATGHTNEMKHTTDFYFNIAGHQAMHYSRILPNIWLGSCPRQVEHVTIKLKHELGITAVMNFQTEWDIVQNSSGCNRYPEPMTPDTMIKLYREEGLAYIWMPTPDMSTEGRVQMLPQAVCLLHALLEKGHIVYVHCNAGVGRSTAAVCGWLQYVMGWNLRKVQYFLMAKRPAVYIDEEALARAQEDFFQKFGKVRSSVCSL
- binding [1]: binds
- binding [2]: binds
- binding [3]: binds
- binding [4]: binds
- binding [12]: no binding
- binding [5]: binds
